Results published in article PMC7272632, “Liquid-liquid phase separation induces pathogenic tau conformations in vitro” (Nature Communications, 2020).

Target: the molecule itself
Experiment: far-Western, overlay or dot blot; non-denaturing dot blot of 4 µM unlabeled tau proteins after 0, 1 and 4 h in LLPS buffer with PEG, probed with the oligomer-selective antibody TOC1, signal ratioed to total tau (R1)

B1: pseudophosphorylated (S199E, S202E and T205E) AT8 tau (unlabeled) (natural protein)
chain: not shown
notes: human microtubule-associated protein tau, 441 amino acids, hT40 or 2N4R isoform, pseudophosphorylated at the AT8 sites
B1: binds.
